# In the supplement of paper PMC3334620:
# In all, about 33,000 sequences were measured (“E-score (-0.5 to 0.5)”: median about -0.054, highest 2% from about 0.35 on). This is one part of the list.
# Target: T1, Stb5 (UniProt P38699)
# T1 sequence: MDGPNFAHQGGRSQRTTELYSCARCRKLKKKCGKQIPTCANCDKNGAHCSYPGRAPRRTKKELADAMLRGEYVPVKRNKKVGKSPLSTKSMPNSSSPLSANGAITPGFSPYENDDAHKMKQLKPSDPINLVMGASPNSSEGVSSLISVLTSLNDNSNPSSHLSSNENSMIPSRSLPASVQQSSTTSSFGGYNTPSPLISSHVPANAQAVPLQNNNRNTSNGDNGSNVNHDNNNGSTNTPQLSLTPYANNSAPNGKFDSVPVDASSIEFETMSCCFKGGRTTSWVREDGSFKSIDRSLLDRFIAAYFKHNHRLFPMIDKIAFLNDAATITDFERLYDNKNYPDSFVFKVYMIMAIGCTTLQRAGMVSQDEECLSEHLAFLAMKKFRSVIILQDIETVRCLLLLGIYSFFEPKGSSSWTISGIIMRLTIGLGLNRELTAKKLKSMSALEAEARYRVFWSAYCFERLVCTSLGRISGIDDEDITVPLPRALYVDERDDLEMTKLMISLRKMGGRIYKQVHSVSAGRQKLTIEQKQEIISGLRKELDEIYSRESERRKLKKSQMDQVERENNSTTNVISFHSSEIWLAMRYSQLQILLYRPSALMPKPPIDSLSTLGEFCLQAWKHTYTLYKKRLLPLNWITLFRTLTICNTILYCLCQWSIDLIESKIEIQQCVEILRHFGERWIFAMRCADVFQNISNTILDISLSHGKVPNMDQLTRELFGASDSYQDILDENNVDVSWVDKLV
# Test: PBM E-score (8-mer binding enrichment) (E-score (-0.5 to 0.5)); higher = stronger / more preferred TF binding; most listed sequences are background and not binding sites
# Conditions: protein concentration: 200 nM; construct: GST-full length
# Method in brief: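 Full-length yeast transcription factors or their DNA-binding domains, GST-tagged and expressed with PURExpress, were applied at about 100-200 nM to universal all-10-mer Agilent arrays. These arrays had been made double-stranded by primer extension on fresh or once-stripped slides. Detection used fluorescent anti-GST, normalisation used masliner, and E-scores for ungapped eight-base words pooled with reverse complements came from the Universal PBM Analysis Suite.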
row,Sequence,PBM E-score
1,AGGGCACG,0.00251
2,GCTATCGA,-0.106
3,TCAACACA,-0.297
4,AGTCCAAT,-0.041
5,CTCAATAA,-0.0345
6,CCCGGTAC,0.263
7,CCTGCACA,-0.243
8,ATGCATAA,-0.175
9,CTTGGTGC,-0.145
10,ATGCATCC,-0.104
11,GAATCCTA,-0.12
12,CTAGGGCA,-0.149
13,AGTCTCGC,-0.249
14,AAAGCCTA,-0.183
15,TCTCTTCA,-0.0422
16,TAGGTGAA,-0.0434
17,ATGTGTTA,-0.227
18,CTCCCCAG,-0.131
19,GCGACCAA,-0.153
20,CGCGTAAA,0.0087
21,AACGGCAA,0.107
22,CATTCATA,0.0938
23,ACCCTAAG,-0.227
24,CACAGAAA,-0.181
25,CCCAAGTC,-0.175

row,Sequence,PBM E-score
1,CGGCATAA,0.343
2,GACTATGA,-0.115
3,CCTCTCAC,-0.254
4,TTAACCAA,-0.0609
5,GAAACGCA,-0.0286
6,CTCAGGGC,-0.0544
7,CTGCCTCC,-0.0731
8,TCCCTACA,-0.00245
9,AAGCCGGG,0.142
10,AAAGGGGC,-0.00863
11,GAATACCA,-0.0851
12,GTAGGAAC,-0.15
13,CGTTGTGA,0.0146
14,CTTCCGCA,0.0499
15,CTATGGAA,-0.0819
16,CTGGAAAG,-0.174
17,ACATATCA,0.0289
18,CGAGTGGC,-0.104
19,CAAACATG,-0.252
20,ACCTTGGC,-0.144
21,AGCCAAAA,-0.119
22,CACAATAC,0.0242
23,ACGTCGTC,-0.0716
24,TGCGTCCA,-0.235
25,AGTTCGTA,-0.117

row,Sequence,PBM E-score
1,CTTGGTTC,-0.0545
2,AAAAAAAT,0.0106
3,CTCAGAGC,-0.269
4,GAAAACGA,0.00708
5,TGGTAACA,-0.127
6,AAATTACC,0.222
7,AGAGTAGC,-0.262
8,GAGAAAAC,-0.0483
9,ATAATTGG,0.0971
10,ATATGAAA,-0.119
11,AATATAGT,-0.0475
12,TCCGACCA,0.3
13,CTGCAGTC,-0.244
14,TATCAGAA,0.0358
15,ATGAGTTC,-0.113
16,ATAACCGG,0.213
17,AGACTATG,-0.119
18,GTATTATA,0.286
19,AGATGTCG,-0.0177
20,ACCCGCGA,0.115
21,AACTCGGG,0.145
22,AGGCGGCA,0.238
23,CCTAAGAC,0.0703
24,GGCAACCC,-0.0389
25,CATGGTCG,0.159

row,Sequence,PBM E-score
1,AACACATT,-0.0546
2,CAACACTA,-0.163
3,GAAATGGA,-0.131
4,ACTATGCT,-0.0393
5,AGTTGTCG,0.127
6,TTAAATAA,0.151
7,TCGCGCAA,-0.136
8,ACAAGGCG,-0.0784
9,ATCCGTAA,0.0101
10,CAGGAATG,-0.384
11,CGTGGAGC,0.0703
12,CGCGCCTA,0.216
13,GAGCAGAA,0.1
14,TGAGTAAA,-0.129
15,ACTTGGAT,-0.199
16,GGATAGGA,-0.00719
17,GAGGGCGC,0.0133
18,GGAGAGCA,-0.154
19,CATAGATG,-0.0624
20,GACGCAGA,-0.0333
21,GGAAGGAC,-0.0635
22,GAGTTAAA,0.0373
23,AATCGTTC,-0.166
24,ATCTGAAG,-0.254
25,AGTTGATG,-0.212

row,Sequence,PBM E-score
1,CCTGGGTC,-0.0597
2,AAGTACAG,-0.204
3,CGCAGCAA,-0.192
4,AAATTGCT,-0.183
5,GGGCGCTA,0.0264
6,ATCCCAAG,-0.0561
7,ACCCACAC,-0.0635
8,TGTCTAAA,-0.0274
9,CGTCCAAG,-0.0248
10,ATCTTATC,-0.0213
11,CCACAGTA,-0.229
12,ACGGGCAG,-0.0575
13,GAGATTAA,-0.142
14,ATTTGTTA,-0.0737
15,AGAGGCTC,-0.00769
16,CATTAATG,-0.0431
17,GGGACTAC,0.144
18,AATATGCC,0.187
19,CTTGGTAC,0.0786
20,CTGATTAA,0.0693
21,CTTTTCAC,-0.11
22,CAGTAATA,0.0883
23,CGAGCGGA,0.385
24,CAATGCAC,-0.142
25,CAAGGTGG,-0.0922

row,Sequence,PBM E-score
1,CACAACGA,0.0581
2,CGCTGCCC,-0.0156
3,CCTTGTGA,-0.0236
4,CGGTTTCA,0.245
5,AGAAATTC,-0.133
6,ACCACCAC,0.0235
7,AGCTAAGG,-0.223
8,AAATCGCA,-0.0561
9,GCAGATTA,-0.0933
10,CAGTGCCG,0.23
11,CGGGGTAG,0.191
12,AATTATTC,0.0099
13,CAGAGAGA,-0.3
14,AAATCCAA,-0.153
15,ATAACTGG,0.081
16,GAAGGAGA,-0.143
17,CTAGCAAG,-0.269
18,GGAGAACA,-0.00473
19,CAAACCTG,-0.18
20,GGTAAAAC,0.165
21,ACAATCCG,0.0737
22,ATGGAGGA,-0.189
23,GAGGCCTA,-0.163
24,AGGGCGCA,-0.0165
25,CTGAGCGA,-0.239

row,Sequence,PBM E-score
1,CACGTATC,-0.0389
2,CAGGGTCA,-0.147
3,CTGTAGAA,-0.195
4,AGAGGAAA,-0.0456
5,GAGTCAGA,-0.0127
6,AAAAACGG,0.137
7,CCAATTAA,-0.137
8,AGTGTTAA,-0.0434
9,ACTAACAG,-0.0446
10,AACTCCGA,0.463
11,ACACAGAG,-0.0564
12,CCGTTATA,0.272
13,GATAGCAA,-0.074
14,ATGCATTA,-0.262
15,AGGACAAT,-0.175
16,ACTGAGCC,-0.125
17,AAAGCTTT,0.00048
18,AGTACGGA,0.205
19,ACTCAGAC,-0.132
20,ACAGCCCG,0.198
21,AAAACAGT,0.0132
22,ATAGTCTC,-0.00316
23,ACGCCTTG,-0.19
24,AGTCTGAA,-0.274
25,AAAAGGCC,0.254

row,Sequence,PBM E-score
1,AGAGAGAA,-0.236
2,CTGATGGA,-0.139
3,CCGGCTGC,0.111
4,CAATAAAA,-0.16
5,AATCTCTG,-0.302
6,ACATCAAC,-0.0505
7,AAACCCAG,-0.132
8,CCACCAAG,-0.0259
9,GACCAAGC,-0.0319
10,AATAACAC,0.28
11,AACATCCA,-0.0959
12,ATCAATGC,0.0163
13,GGACAAAC,0.0886
14,ATAGCCAG,-0.269
15,GAAAAGGA,-0.0613
16,CCTGATCG,-0.0812
17,ATTTGTGA,0.021
18,AAATTGAT,-0.0183
19,TCCTGCCA,-0.236
20,GAGCTAAA,-0.013
21,ACCTCCAA,-0.216
22,ATGGAAAA,-0.0267
23,ACGGGTCA,-0.0174
24,AAATACAT,-0.103
25,ACAACTGC,-0.246

row,Sequence,PBM E-score
1,AGGGACCT,-0.182
2,ATGATCTG,-0.186
3,CGCTGTGC,0.116
4,CAACATCC,0.00137
5,CGACAAGC,0.141
6,CCGGGAGC,0.16
7,AGGCTGAG,-0.028
8,CCAAAGTA,-0.0253
9,GAAGTTAA,-0.0172
10,CAAACCAC,-0.0998
11,ACATCAAT,-0.12
12,AGTACCCC,0.0442
13,AGGATGGA,-0.0596
14,ATTGCAAT,0.0889
15,ATCGACAA,-0.137
16,AGCATGTC,-0.214
17,GGATAACA,-0.0362
18,ACGTTCAA,-0.0811
19,ATATTAGG,-0.19
